Laboratory results from PubChem BioAssay (NCATS).
Inconclusive results, whose numbers are uncertain, are shown with a selection of clear calls. For part of these data: Where the call is inconclusive, the potency comes from a doubtful curve fit. For part of these data: “Side channel” marks fits to a control or component signal instead of the main read-out. The source made the active and inactive calls. Unless noted, the call rests on the fitted dose curve; in most records, active means well fitted curve in the direction sought with a large enough effect; inconclusive means small, poorly fitted or top-dose-only effect, or another doubt; inactive means no such curve, though single readings can be large; an effect the other way counts as inactive or inconclusive.

How the values were obtained:
[1] = Cell Viability - NIH 3T3 (AID 541); conditions: NIH 3T3 cell viability, qHTS; activity change, negative = cytotoxicity: at 92.2 µM (top of the series);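 further: cells exposed to compound for 40 hours; plate controls were DMSO alone for no effect and tamoxifen positive control for full effect; nearly all actives have a fitted effect of over 25% in size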
Summary of the method: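 Cells seeded at 1000/well, rested 5 hr at 37 °C, then dosed and incubated 40 hr at 37 °C. CellTiter-Glo added, 20 min room temperature, luminescence read. AC50 by Hill fit.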

[2] = Cell Viability - SH-SY5Y (AID 544); conditions: SH-SY5Y neuroblastoma cell viability; at 92.2 µM (top of the series);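 further: cells exposed to compound for 40 hours; 0% = DMSO alone and -100% = 100 µM tamoxifen; nearly all actives have a fitted effect of over 55% in size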
Summary of the method: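 Cells were plated at 1500 per well and allowed 5 hr at 37 °C. Compounds were added across a concentration range and incubated 40 hr at 37 °C. CellTiter-Glo was added for 20 min at room temperature before luminescence reading.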

[3] = Cell Viability - Mesenchymal (AID 546); conditions: mesenchymal cells viability, qHTS; at 91.7 µM (top of the series);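 further: cells exposed to compound for 40 hours before reading; 0% = DMSO only and -100% = 100 µM tamoxifen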
Summary of the method: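 In this qHTS cytotoxicity format, glomerulus-derived human mesenchymal kidney cells received compound for 40 hr, then luciferase-based ATP quantitation. Concentration-response data were fitted with the Hill equation.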

[4] = Cell Viability - LYMP2-009 (AID 968); conditions: LYMP2-009 lymphoblastoid cell viability; activity change, negative = viability loss: at 92.2 µM (top of the series);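 further: cells exposed to compound for 24 h at 37 °C; 0% = DMSO alone and the full-kill end = tetraoctylammonium bromide at 92 µM; nearly all actives have a fitted effect of over 55% in size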
[5] = Cell Viability - LYMP2-017 (AID 972); conditions: LYMP2-017 lymphoblastoid cell viability; activity change, negative = cytotoxicity: at 92.2 µM (top of the series);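 further: cells exposed to compound for 24 hours at 37 °C; on the % scale 0 is the no-effect control and ±100 the full control effect; nearly all actives have a fitted effect of over 55% in size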
Summary of the method: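 Cytotoxicity is scored as a concentration-dependent drop in cellular ATP in a human lymphoblastoid line after 24 hr treatment at 37 C. Values are AC50s from Hill-equation modelling.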

[6] = Cell Viability - LYMP2-010 (AID 981);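 further: cells exposed to compound for 24 hours at 37 °C; on the % scale 0 is the no-effect control and ±100 the full control effect; nearly all actives have a fitted effect of over 55% in size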
Summary of the method: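 Steps: seed 2500 LYMP2-010 cells per well; incubate 5 hr at 37 C; add compound; incubate 24 hr at 37 C; add CellTiter-Glo, wait 30 min at room temperature; read luminescence. Concentration-response fitted to Hill equation for AC50.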

[7] = biological target: Androgen receptor (Homo sapiens) (UniProt P10275); assay: qHTS assay for small molecule antagonists of androgen receptor signaling (AID 588516; active means well fitted curve in the direction sought with a large enough effect in the signal ratio, with a control signal flat, not every such curve was filed as active; inconclusive means small, poorly fitted or top-dose-only effect, or effect the other way, or a change in a side signal; inactive means no such curve, though single readings can be large or run the other way; the % refers to the signal ratio; further: on the % scale 0 is the no-effect control and ±100 the full control effect); conditions: AR-UAS-bla HEK293, beta-lactamase ratio, antagonist mode, 16 h; activity change, negative = inhibition: at 76.8 µM (top of the series)
UniProt P10275, sequence (P10275 whole entry, looked up): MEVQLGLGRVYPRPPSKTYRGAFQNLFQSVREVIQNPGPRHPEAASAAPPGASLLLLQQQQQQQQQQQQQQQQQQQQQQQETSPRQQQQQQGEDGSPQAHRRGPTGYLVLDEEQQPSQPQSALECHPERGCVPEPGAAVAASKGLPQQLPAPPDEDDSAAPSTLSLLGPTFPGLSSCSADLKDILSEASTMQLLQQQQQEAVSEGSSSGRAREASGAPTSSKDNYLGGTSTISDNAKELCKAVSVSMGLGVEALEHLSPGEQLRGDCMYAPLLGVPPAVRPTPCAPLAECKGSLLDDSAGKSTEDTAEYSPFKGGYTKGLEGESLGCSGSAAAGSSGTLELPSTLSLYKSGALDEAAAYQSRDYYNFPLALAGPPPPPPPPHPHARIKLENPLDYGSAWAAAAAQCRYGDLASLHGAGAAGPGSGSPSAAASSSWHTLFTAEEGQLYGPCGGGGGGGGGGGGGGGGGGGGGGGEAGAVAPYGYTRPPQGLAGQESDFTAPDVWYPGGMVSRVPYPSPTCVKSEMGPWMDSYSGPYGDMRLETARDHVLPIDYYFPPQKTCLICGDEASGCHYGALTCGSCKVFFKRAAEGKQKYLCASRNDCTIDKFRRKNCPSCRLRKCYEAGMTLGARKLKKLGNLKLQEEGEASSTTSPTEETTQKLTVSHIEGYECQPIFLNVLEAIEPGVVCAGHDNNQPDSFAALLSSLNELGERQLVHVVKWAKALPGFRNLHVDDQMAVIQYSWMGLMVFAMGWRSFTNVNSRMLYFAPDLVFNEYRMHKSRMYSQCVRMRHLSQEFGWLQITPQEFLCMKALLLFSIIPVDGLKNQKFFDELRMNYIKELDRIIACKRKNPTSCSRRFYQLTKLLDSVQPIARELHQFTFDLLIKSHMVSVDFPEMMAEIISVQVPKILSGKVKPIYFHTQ
Summary of the method: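 Antagonist-mode qHTS: inhibition of R1881 (10 nM)-driven beta-lactamase expression in GripTite HEK 293 cells is measured after 16 h; values are Hill-derived IC50s normalized between R1881 and DMSO wells.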

[8] = biological target: Vitamin D3 receptor (Homo sapiens) (UniProt P11473); assay: qHTS assay for small molecule agonists of vitamin D receptor signaling (AID 588543; calls by dose curve; further: potency means the concentration at half of the fitted maximal effect); conditions: HEK293T VDR-UAS-bla, beta-lactamase ratio, 16 h; activation: at 76.8 µM (top of the series)
Summary of the method: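 Reporter cells (HEK293T, VDR-UAS-bla) were seeded in medium with 2% charcoal-stripped serum and incubated 5 h, then compounds in concentration series were added for 16 h at 37 °C. Stimulation was scaled between DMSO basal and 50 nM 1α,25-dihydroxyvitamin D3.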

[9] = biological target: Thyroid hormone receptor beta (Homo sapiens) (UniProt P10828); assay: qHTS assay for small molecule agonists of thyroid hormone receptor beta signaling (AID 588545; calls by dose curve); conditions: TR-UAS-bla GripTite HEK 293, beta-lactamase ratio, agonist mode, 18 h; activation: at 76.7 µM, percent of T3 response, DMSO as zero
UniProt P10828, sequence (P10828 whole entry, looked up): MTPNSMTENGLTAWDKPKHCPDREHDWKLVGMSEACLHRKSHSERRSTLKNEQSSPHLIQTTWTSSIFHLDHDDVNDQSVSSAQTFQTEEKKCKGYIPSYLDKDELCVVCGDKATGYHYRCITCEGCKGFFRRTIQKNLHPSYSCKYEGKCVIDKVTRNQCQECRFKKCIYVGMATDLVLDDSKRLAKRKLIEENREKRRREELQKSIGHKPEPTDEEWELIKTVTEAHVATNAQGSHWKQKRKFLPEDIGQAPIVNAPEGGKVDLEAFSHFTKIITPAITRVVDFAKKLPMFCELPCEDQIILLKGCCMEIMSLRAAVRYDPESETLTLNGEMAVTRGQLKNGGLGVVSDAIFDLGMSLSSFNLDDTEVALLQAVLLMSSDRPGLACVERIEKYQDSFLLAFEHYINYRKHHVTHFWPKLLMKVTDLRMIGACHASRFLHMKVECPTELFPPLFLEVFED
Summary of the method: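 Agonist-mode beta-lactamase reporter assay, HEK 293 cells, 2% charcoal/dextran FBS; cells plated 4 hrs, compound 18 hrs at 37 C, CCF4 2 hrs RT. Normalized to 10 nM T3 (100%) and DMSO (0%); Hill fit gives EC50, efficacy.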

[10] = qHTS assay for small molecule agonists of the antioxidant response element (ARE) signaling pathway (AID 651741; active means well fitted activation curve with a large enough effect in the signal ratio; inconclusive means small, poorly fitted or top-dose-only effect, or effect the other way, or a change in a side signal; the % refers to the signal ratio; further: % of control where 0% means no effect); conditions: HepG2 ARE-bla reporter, beta-lactamase FRET ratio, 16 h; activation: at 96 µM (top of the series) unless noted
Summary of the method: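 Reporter: beta-lactamase under ARE, stably in HepG2. Exposure: 16 h, 37 C, compounds delivered in DMSO by pin tool after 5 h cell preincubation. Readout: FRET substrate fluorescence after 2 h at RT.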

[11] = qHTS assay to identify small molecules that stimulate interleukin-8 (IL-8) secretion (AID 651758; active means well fitted activation curve with a large enough effect in the signal ratio; inconclusive means small, poorly fitted or top-dose-only effect, or effect the other way, or a change in a side signal; the % refers to the signal ratio; further: potency means the concentration at half of the fitted maximal effect); conditions: HTRF ratio (665/615); activation: at 92.2 µM (top of the series)
Summary of the method: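 Quantitative HTS in THP-1 monocytic cells at 2000 cells per well, with 16 hrs compound incubation at 37 C. IL-8 in the medium was then quantified by HTRF immunoassay, read after 1-3 hrs at room temperature.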

[12] = qHTS assay for small molecule antagonists of the retinoid-related orphan receptor gamma (ROR-gamma) signaling pathway - cell viability counter screen (AID 720652; active means well fitted curve in the direction sought with a large enough effect in the repeat runs; inconclusive means weak or mixed curves; inactive means no such curve, though single readings can be large; an effect the other way counts as inactive or inconclusive;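 further: CHO reporter cells with doxycycline-induced ROR-gamma expression; compound exposure lasted 16 hr before ATP read; on the % scale 0 is the no-effect control and ±100 the full control effect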)
Summary of the method: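 Steps: seed CHO cells bearing TET-inducible ROR and ROR response element-luciferase; rest 5 hr at 37 C; add compound, then doxycycline; incubate 16 hr; add CellTiter-Glo and read luminescence as ATP-based viability.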

[13] = Cell Viability - N2a (AID 540); conditions: N2a mouse neuroblastoma cell viability; at 92.2 µM (top of the series);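 further: cells exposed to compound for 40 h at 37 °C; plate controls were DMSO alone for no effect and tamoxifen control for full effect; nearly all actives have a fitted effect of over 45% in size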
Summary of the method: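 Cytotoxicity was scored as loss of cellular ATP in N2a cells, a mouse neuroblastoma line. Compounds are applied in a qHTS concentration series for 40 hr at 37 °C.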

[14] = MultiTox-Fluor Cytotoxicity Assay - LYMP1-001 - Live Cells (AID 947); further: potency means the concentration at half of the fitted maximal effect;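 on activity change, negative = cytotoxicity: 0% = DMSO only and full inhibition = tetraoctylammonium bromide control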
[15] = Cell Viability - LYMP2-005 (AID 967);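 further: potency means the concentration at half of the fitted maximal effect; cells exposed to compound for 24 h at 37 °C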
Summary of the method: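 Acute cytotoxicity is scored as a concentration-dependent drop in intracellular ATP in human lymphoblastoid LYMP2-005 cells after 24 h compound treatment. ATP is quantified by luciferase luminescence, and AC50 is derived by Hill-equation modelling.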

[16] = biological target: Glucocorticoid receptor (Homo sapiens) (UniProt P04150); assay: qHTS assay for small molecule antagonists of glucocorticoid receptor signaling (AID 588533; active means well fitted inhibition curve with a large enough effect in the signal ratio, with a control signal flat, not every such curve was filed as active; inconclusive means small, poorly fitted or top-dose-only effect, or effect the other way, or a change in a side signal; the % refers to the signal ratio;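 further: cells stimulated with 2 nM dexamethasone as agonist; on the % scale 0 is the no-effect control and ±100 the full control effect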); conditions: HeLa MMTV-bla, GRE beta-lactamase ratio, antagonist mode, 18 h; activity change, negative = inhibition: at 76.8 µM (top of the series)
UniProt P04150, sequence (P04150 whole entry, looked up): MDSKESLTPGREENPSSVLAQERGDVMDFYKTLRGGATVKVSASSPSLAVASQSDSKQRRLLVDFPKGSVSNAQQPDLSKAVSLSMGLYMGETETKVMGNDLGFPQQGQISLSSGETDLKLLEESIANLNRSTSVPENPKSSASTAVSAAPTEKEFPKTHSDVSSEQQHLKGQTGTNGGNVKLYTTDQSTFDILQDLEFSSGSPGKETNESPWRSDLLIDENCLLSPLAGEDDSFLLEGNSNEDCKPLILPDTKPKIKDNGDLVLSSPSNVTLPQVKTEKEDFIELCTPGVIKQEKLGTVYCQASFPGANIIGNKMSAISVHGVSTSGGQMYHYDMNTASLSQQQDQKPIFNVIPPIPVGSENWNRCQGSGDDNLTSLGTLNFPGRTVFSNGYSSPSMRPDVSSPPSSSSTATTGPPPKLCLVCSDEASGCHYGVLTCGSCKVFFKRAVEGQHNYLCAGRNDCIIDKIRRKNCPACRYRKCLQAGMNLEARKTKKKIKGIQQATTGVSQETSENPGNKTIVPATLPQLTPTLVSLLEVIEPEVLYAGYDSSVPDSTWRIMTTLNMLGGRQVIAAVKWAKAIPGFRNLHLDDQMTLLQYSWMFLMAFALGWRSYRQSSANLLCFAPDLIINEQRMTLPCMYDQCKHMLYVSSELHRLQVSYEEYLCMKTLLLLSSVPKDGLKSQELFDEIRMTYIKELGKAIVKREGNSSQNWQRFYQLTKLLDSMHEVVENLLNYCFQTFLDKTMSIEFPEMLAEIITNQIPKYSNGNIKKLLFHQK

[17] = biological target: Peroxisome proliferator-activated receptor gamma (Homo sapiens) (UniProt P37231); assay: qHTS assay for small molecule agonists of peroxisome proliferator-activated receptor gamma signaling (AID 588536; active means well fitted curve in the direction sought with a large enough effect in the signal ratio, with a control signal flat, not every such curve was filed as active; inconclusive means small, poorly fitted or top-dose-only effect, or effect the other way, or a change in a side signal; inactive means no such curve, though single readings can be large or run the other way; the % refers to the signal ratio; further: potency means the concentration at half of the fitted maximal effect;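 on activation: 0% = DMSO basal wells and 100% = rosiglitazone at 2 µM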); conditions: HEK293 PPARg-UAS-bla, beta-lactamase ratio, 16 h; activation: at 76.7 µM (top of the series), percent of rosiglitazone response, DMSO as zero
Summary of the method: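 Cells were plated and held 6–6.5 h at 37 C, then compounds were added as a titration series. After a further 16 h, CCF4 dye was loaded for 2 h at room temperature and emission at 460/530 nm recorded.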

[18] = biological target: Peroxisome proliferator-activated receptor gamma (Homo sapiens) (UniProt P37231); assay: qHTS assay for small molecule antagonists of peroxisome proliferator-activated receptor gamma signaling (AID 588537; active means well fitted inhibition curve with a large enough effect in the signal ratio, with a control signal flat, not every such curve was filed as active; inconclusive means small, poorly fitted or top-dose-only effect, or effect the other way, or a change in a side signal; the % refers to the signal ratio;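 further: reporter cells co-stimulated with 50 nM rosiglitazone agonist during compound treatment; % of control where 0% means no effect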); conditions: HEK293 PPARg-UAS-bla, beta-lactamase ratio, antagonist mode; activity, negative = inhibition: at 76.8 µM (top of the series) unless noted
Summary of the method: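 Compounds are tested as concentration series for inhibition of rosiglitazone-driven (50 nM) reporter expression in GeneBLAzer PPAR-gamma-UAS-bla HEK293 cells. After 16 h at 37 C, CCF4 substrate is added for 2 h at room temperature and blue/green fluorescence is measured.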

[19] = biological target: Cytochrome P450 3A4 (Homo sapiens) (UniProt P08684); assay: qHTS Assay for Inhibitors and Substrates of Cytochrome P450 3A4 (AID 884); conditions: recombinant CYP3A4, Luciferin-PPXE luminescence; activity change, negative = inhibition: at 57.1 µM (top of the series) unless noted; further: on the % scale 0 is the no-effect control and ±100 the full control effect; nearly all actives have a fitted effect of over 50% in size
UniProt P08684, sequence (P08684 whole entry, looked up): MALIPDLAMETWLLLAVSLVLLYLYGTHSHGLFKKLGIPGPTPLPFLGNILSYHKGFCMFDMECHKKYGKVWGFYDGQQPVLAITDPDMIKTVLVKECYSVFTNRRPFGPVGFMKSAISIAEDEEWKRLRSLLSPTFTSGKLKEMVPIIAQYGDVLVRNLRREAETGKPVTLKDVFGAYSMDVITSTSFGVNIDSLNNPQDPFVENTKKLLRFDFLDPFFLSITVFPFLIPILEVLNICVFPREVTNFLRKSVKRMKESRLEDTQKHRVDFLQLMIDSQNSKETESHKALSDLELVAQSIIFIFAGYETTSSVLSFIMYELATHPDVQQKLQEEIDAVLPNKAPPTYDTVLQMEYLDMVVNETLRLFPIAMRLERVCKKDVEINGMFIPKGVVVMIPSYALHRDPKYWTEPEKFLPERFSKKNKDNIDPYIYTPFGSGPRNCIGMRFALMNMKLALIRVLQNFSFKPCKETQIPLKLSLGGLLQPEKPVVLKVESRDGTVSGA
Summary of the method: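 Luminescent readout of luciferin produced by CYP3A4 (20 nM) dealkylation of Luciferin-PPXE, 25 uM (its KM). NADPH-driven reaction ran 60 min at RT after 10 min compound preincubation; data scaled to 57 uM ketoconazole as 100% inhibition.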

[20] = biological target: Retinoic acid receptor RXR-alpha (Homo sapiens) (UniProt P19793); assay: qHTS assay for small molecule antagonists of retinoid X receptor alpha signaling (AID 588546; active means well fitted inhibition curve with a large enough effect in the signal ratio, with a control signal flat, not every such curve was filed as active; inconclusive means small, poorly fitted or top-dose-only effect, or effect the other way, or a change in a side signal; inactive means no such curve, though single readings can be large or run the other way; the % refers to the signal ratio;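 further: cells stimulated with 9-cis-retinoic acid as agonist; on the % scale 0 is the no-effect control and ±100 the full control effect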); conditions: HEK293T RXRa-UAS-bla, beta-lactamase ratio, antagonist mode
UniProt P19793, sequence (P19793 whole entry, looked up): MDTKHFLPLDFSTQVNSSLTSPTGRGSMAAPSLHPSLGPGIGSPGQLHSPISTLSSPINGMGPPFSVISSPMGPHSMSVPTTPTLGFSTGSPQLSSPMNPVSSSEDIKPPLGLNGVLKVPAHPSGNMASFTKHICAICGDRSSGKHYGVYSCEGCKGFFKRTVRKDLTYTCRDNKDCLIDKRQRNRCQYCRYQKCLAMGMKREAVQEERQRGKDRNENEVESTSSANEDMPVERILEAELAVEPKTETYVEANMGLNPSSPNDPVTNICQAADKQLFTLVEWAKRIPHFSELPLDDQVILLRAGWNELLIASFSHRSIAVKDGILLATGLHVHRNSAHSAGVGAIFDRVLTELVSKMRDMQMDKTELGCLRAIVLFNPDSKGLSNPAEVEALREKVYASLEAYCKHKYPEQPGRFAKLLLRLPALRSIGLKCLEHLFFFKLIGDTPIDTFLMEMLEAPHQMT
Summary of the method: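 Beta-lactamase reporter inhibition, read as CCF4 fluorescence ratio (ex 405, em 460/530 nm) after 2 h at RT. HEK293T UAS-bla cells, 2500/well, were stimulated with 9-cis-RA at 500 or 100 nM final alongside test compound for 18 h at 37 C.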

[21] = qHTS assay for small molecule agonists of the antioxidant response element (ARE) signaling pathway measured by Nrf2-dependant transcriptional activity - cell viability counter screen (AID 720653; active means well fitted curve in the direction sought with a large enough effect in the repeat runs; inconclusive means weak or mixed curves; inactive means no such curve, though single readings can be large; an effect the other way counts as inactive or inconclusive; further: on the % scale 0 is the no-effect control and ±100 the full control effect); conditions: ARE-bla HepG2 viability, CellTiter-Glo ATP luminescence, 16 h; max response: stronger effect = lower value
Summary of the method: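 ARE-bla HepG2 cells (2,000/well) rested 5 hrs at 37C/5% CO2, then exposed to compounds in DMSO for 16 hrs. Viability was read in the same wells as intracellular ATP by luminescence, 30 min at room temperature after reagent addition.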

[22] = Cell Viability - LYMP2-016 (AID 984)
Summary of the method: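 Cells were seeded at 2500 per well and rested 5 hr before a 24 hr compound exposure at 37 C. Viability was then gauged as cellular ATP by luciferase luminescence, with AC50 values fitted to the Hill equation.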
Tags describe the fitted curve by direction and shape or compound fluorescence and quenching.

CCCOCC(C)O (stereo not given)
inactive: activity change, negative = cytotoxicity [1] -11.3% | activity change, negative = cytotoxicity [3] -3.11% | Potency [4] | Potency [6] | Potency [12]
inconclusive: viability change, negative = cytotoxic [2] -30.9% | activity change, negative = cytotoxicity [5] -32.9% [cytotoxic] | activity change, negative = inhibition [7] -20.5% | Potency [8] 50.1 µM [side channel, rising, single point] | activation [9] -14% | activation [10] 10.2% | Potency [11] 75 µM [activator, single point]

CSCCC=O
inactive: activity change, negative = cytotoxicity [13] -17.9% | Potency [14] | Potency [16] | Potency [17] | Potency [10]
inconclusive: Potency [15] 0.158 µM [cytotoxic, full curve, poor fit] | activity, negative = inhibition [18] 14.5%

C/C=C1\CC2C=CC1C2 (stereo not given)
inconclusive: Potency [17] 31.6 µM [cytotoxic, side channel] | activation [9] -14.3% | Potency [11] 75 µM [rising, single point]
inactive: activity change, negative = cytotoxicity [1] -6.8% | Potency [19] | max response [20] 6.71% | max response [21] -2.33%

CC(N)CN (stereo not given)
inactive: activity change, negative = cytotoxicity [1] -4.72% | Potency [22]
inconclusive: Potency [14] 0.199 µM [cytotoxic, full curve] | activity, negative = inhibition [18] 1.07%
